Data taken from PubChem BioAssay (Tox21).
Several values for one entry are separate records, joined by “and”; a condition that tells them apart may be missing. Equal values may be shown once. Inconclusive means that the source gave no clear call. Such entries were picked first, then a sample of the others. Potencies of inconclusive entries are doubtful fits and often do not repeat. Activity calls are given as the source filed them. Unless noted, calls come from the whole dose curve; as a rule, active = well fitted curve in the direction sought with a large enough effect in the repeat runs; inconclusive = weak or mixed curves; inactive = no such curve, though single readings can be large; an effect the other way counts as inactive or inconclusive.

Key:
[1] = molecular target: Estrogen receptor beta (Homo sapiens) (UniProt Q92731); assay: qHTS assay to identify small molecule antagonists of the estrogen receptor beta (ER-beta) signaling pathway (AID 1259378; active = well fitted inhibition curve with a large enough effect in the signal ratio in the repeat runs, not every such curve was filed as active; inconclusive = weak or mixed curves, or effect the other way; inactive = no such curve, though single readings can be large or run the other way; the % refers to the signal ratio; for activity, negative = inhibition: % is set by controls: 0 for no effect and ±100 for the full control effect); details: ER-beta-UAS-bla HEK293T, beta-lactamase FRET ratio, 16 h; activity, negative = inhibition: at 92.4 µM (top of the series) unless noted
Procedure, shortened: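 ER-beta-UAS-bla HEK293T (GripTite) cells in 2% charcoal-stripped FBS medium were preincubated 6 hr at 37C, dosed with compound, then stimulated with 1 nM E2 (final) for 16 hr; beta-lactamase reporter read by B/G FRET fluorescence after 2 hr substrate loading.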

[2] = qHTS assay to identify small molecule agonists of the estrogen receptor alpha (ER-alpha) signaling pathway in the presence of an antagonist - cell viability counter screen (AID 1259386); details: VM7Luc4E2 viability, CellTiter-Fluor fluorescence, 22 h; series mostly up to 92.4 µM;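 note: cells exposed to compounds for 22 h at 37 °C before the viability read; nearly all actives have a fitted effect of over 30% in size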
Procedure, shortened: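 VM7Luc4E2, stripped-serum pre-culture 5 d; 24hr plating; +ICI-182,780 10.0nM final; cpds 15 conc, 22hr, 37C/5% CO2; CellTiter-Fluor added at 21hr, fluorescence 1hr later.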

[3] = molecular target: Thyrotropin receptor (Homo sapiens) (UniProt P16473); assay: qHTS assay to identify small molecule antagonists of the thyroid stimulating hormone receptor (TSHR) signaling pathway (AID 1259385; calls by dose curve; note: nearly all actives have a fitted effect of over 20% in size; for activity change, negative = inhibition: % is set by controls: 0 for no effect and ±100 for the full control effect); details: TSHR-HEK293 cAMP HTRF, TSH-stimulated antagonist mode; activity change, negative = inhibition: at 92.4 µM (top of the series) unless noted
Procedure, shortened: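 TSHR-HEK293 cells were plated and held 18 h at 37C/5% CO2, then given compound plus Ro20-1724 and stimulated with TSH at 1.5 ng/mL final. After 30 min at room temperature, cAMP was detected with cAMP-d2/anti-cAMP-cryptate (1 h) by fluorescence.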

[4] = molecular target: Progesterone receptor (Homo sapiens) (UniProt P06401); assay: qHTS assay to identify small molecule agonists of the progesterone receptor (PR) signaling pathway (AID 1346784; calls by dose curve; note: nearly all actives have a fitted effect of over 30% in size; for activation: % is set by controls: 0 for no effect and ±100 for the full control effect); details: PR-UAS-bla HEK293T, beta-lactamase FRET ratio, 16 h; activation: at 92.4 µM (top of the series) unless noted
Procedure, shortened: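 Cells (PR-UAS-bla HEK 293T, GripTite) were plated in assay medium containing 2% charcoal-stripped FBS and incubated 6 hr. Test compounds in DMSO were added for 16 hr at 37C. FRET substrate was then loaded for 2 hr at room temperature before fluorescence reading.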

[5] = qHTS assay to identify small molecule agonists of the androgen receptor (AR) signaling pathway in the presence of an antagonist - cell viability counter screen (AID 1259379); details: MDA-kb2 viability, CellTiter-Fluor, 16 h; series mostly up to 92.4 µM; note: nearly all actives have a fitted effect of over 25% in size
Procedure, shortened: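 Cells: MDA-kb2 (MMTV-luc, AR and GR elements), 3,000/well, 5 hr settle. Added: nilutamide 3.0uM final, then compounds (15 conc.). Incubation: 16 hr, 37C, no CO2. Read-out: CellTiter-Fluor, 1 hr, fluorescence.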

[6] = qHTS assay to identify small molecule agonists of the estrogen receptor beta (ER-beta) signaling pathway - cell viability counter screen (AID 1259380); details: ER-beta-bla HEK293T viability, CellTiter-Glo luminescence, 16 h; series mostly up to 92.4 µM; note: nearly all actives have a fitted effect of over 30% in size
Procedure, shortened: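 HEK293T ER-beta-UAS-bla; 2% CS-FBS; 6 hr pre-plate, 16 hr cpd at 37C/5% CO2; LiveBLAzer read first, then CellTiter-Glo 30 min RT, luminescence.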

[7] = qHTS assay to identify small molecule agonists or antagonists of the thyroid stimulating hormone receptor (TSHR) signaling pathway - wild type cell line counter screen (AID 1259384; calls by dose curve; for cAMP activity change: % is set by controls: 0 for no effect and ±100 for the full control effect); details: HEK293 wild type, cAMP HTRF counter-screen; cAMP activity change: at 92.4 µM (top of the series), stronger effect = higher value unless noted
Procedure, shortened: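 Wild-type HEK293 cells were plated 18 h at 37 C/5% CO2, pin-dosed with compound plus Ro20-1724 medium, held 30 min at room temperature, then given cAMP-d2 and anti-cAMP-cryptate; fluorescence was read after 1 h. Fifteen concentrations, triplicate.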

[8] = qHTS assay to identify small molecule antagonists of the estrogen receptor beta (ER-beta) signaling pathway - cell viability counter screen (AID 1259382); details: ER-beta-UAS-bla HEK293T viability, CellTiter-Glo luminescence, 16 h; series mostly up to 92.4 µM; note: nearly all actives have a fitted effect of over 55% in size
Procedure, shortened: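 Cells: ER-beta-UAS-bla HEK293T, 2,000/well, 2% CS-FBS, 6 hr settle. Cpd + E2 (1nM final), 16 hr, 37C/5% CO2. Bla FRET substrate 2 hr RT, then CellTiter-Glo 30 min RT, luminescence.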

[9] = molecular target: Estrogen receptor (Homo sapiens) (UniProt P03372); assay: qHTS assay to identify small molecule agonists of the estrogen receptor alpha (ER-alpha) signaling pathway in the presence of an antagonist (AID 1259383; calls by dose curve; note: nearly all actives have a fitted effect of over 15% in size); details: VM7Luc4E2 cells, ERE-luciferase, +ICI-182,780, 22 h; series mostly up to 42.5 µM
Procedure, shortened: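 VM7Luc4E2, endog. ER-alpha + 4×ERE-luc; charcoal-stripped FBS, phenol red-free, 5 d; 24hr plating; +10.0nM ICI-182,780 (final); cpds 15 conc, 22hr, 37C/5% CO2; ONE-Glo luminescence.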
Potency is the fitted concentration of half-maximal effect; tags give direction and shape of the fitted curve or compound fluorescence and quenching.

UniProt P16473, sequence (P16473 whole entry, looked up): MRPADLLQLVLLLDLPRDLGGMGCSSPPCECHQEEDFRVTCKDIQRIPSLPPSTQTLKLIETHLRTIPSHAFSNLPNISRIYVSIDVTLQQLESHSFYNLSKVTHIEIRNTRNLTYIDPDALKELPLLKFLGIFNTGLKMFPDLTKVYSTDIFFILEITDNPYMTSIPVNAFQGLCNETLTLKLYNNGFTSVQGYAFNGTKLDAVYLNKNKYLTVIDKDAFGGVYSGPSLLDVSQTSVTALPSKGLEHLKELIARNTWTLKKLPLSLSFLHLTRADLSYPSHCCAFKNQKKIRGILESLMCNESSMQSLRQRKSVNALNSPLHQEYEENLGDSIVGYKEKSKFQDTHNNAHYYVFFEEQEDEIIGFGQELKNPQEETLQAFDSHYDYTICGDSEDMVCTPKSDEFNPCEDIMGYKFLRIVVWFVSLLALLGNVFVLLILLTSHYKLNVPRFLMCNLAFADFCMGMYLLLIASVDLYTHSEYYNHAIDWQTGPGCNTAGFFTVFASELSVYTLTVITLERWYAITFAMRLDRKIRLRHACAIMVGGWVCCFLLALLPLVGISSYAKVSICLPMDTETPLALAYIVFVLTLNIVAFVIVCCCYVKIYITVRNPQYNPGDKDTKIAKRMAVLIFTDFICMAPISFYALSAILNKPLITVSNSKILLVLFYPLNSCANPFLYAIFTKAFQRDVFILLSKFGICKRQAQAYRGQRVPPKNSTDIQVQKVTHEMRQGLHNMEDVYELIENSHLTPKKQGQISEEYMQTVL
UniProt P06401, sequence (P06401 whole entry, looked up): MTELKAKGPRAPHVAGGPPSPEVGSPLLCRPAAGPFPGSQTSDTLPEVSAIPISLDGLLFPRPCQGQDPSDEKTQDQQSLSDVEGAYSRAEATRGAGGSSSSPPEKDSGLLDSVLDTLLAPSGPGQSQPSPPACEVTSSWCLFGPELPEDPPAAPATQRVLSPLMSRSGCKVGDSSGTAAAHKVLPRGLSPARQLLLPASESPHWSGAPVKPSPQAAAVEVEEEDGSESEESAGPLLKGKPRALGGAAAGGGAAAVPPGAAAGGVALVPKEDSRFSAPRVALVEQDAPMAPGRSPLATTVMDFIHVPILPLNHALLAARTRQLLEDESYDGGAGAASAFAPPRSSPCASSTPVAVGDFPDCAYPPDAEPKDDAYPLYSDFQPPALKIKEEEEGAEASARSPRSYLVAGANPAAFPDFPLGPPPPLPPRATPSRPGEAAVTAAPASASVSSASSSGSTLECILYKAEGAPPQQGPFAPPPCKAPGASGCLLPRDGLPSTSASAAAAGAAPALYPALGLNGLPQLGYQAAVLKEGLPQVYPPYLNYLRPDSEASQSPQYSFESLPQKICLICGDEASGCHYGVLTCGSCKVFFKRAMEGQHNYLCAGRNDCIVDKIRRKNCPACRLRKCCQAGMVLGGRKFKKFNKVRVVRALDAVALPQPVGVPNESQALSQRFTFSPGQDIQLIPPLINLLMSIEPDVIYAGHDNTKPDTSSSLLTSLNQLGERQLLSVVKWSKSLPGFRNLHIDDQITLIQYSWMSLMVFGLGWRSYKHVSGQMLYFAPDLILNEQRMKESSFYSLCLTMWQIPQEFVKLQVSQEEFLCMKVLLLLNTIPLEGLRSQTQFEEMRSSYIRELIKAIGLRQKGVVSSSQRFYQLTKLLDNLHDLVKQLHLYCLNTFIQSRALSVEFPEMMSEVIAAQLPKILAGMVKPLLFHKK
UniProt Q92731, sequence (Q92731 whole entry, looked up): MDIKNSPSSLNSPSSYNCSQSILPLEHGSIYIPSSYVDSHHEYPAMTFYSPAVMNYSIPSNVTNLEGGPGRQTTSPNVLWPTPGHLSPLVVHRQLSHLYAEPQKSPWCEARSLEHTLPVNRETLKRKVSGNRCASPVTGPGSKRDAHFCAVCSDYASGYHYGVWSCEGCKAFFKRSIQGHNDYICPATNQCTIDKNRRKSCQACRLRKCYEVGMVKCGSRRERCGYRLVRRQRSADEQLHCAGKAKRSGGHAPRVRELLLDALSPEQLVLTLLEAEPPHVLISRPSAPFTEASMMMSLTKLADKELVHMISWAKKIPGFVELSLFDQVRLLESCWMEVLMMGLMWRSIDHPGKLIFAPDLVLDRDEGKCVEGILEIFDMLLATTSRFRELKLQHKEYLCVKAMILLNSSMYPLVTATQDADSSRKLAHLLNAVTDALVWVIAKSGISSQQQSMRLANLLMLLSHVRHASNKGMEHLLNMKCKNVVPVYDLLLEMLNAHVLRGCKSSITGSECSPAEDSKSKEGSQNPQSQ
UniProt P03372, sequence (P03372 whole entry, looked up): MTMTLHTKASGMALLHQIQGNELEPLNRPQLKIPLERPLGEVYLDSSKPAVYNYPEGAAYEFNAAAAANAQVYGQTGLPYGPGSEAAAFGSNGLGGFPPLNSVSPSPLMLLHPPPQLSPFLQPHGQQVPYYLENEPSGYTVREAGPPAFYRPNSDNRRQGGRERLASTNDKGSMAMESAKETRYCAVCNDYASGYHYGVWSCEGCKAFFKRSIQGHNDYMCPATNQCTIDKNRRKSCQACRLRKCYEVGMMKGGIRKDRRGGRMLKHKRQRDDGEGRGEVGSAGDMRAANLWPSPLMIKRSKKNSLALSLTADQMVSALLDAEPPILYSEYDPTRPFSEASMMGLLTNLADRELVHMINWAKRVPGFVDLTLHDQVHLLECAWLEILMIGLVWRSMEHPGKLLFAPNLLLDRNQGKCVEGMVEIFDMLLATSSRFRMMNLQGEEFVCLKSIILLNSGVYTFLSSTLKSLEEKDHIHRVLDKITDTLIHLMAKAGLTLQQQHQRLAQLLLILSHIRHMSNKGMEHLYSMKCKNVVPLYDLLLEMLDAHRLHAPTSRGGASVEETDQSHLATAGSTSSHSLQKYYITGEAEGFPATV

For `CC(CCc1ccc(O)cc1)NCCc1ccc(O)c(O)c1` (stereo not given), the Potency [1] was inconclusive: 33.5 µM and the Potency [2] was inconclusive: 33.5 µM [cytotoxic, single point].

For `Cc1cc(CCCOc2c(C)cc(-c3noc(C(F)(F)F)n3)cc2C)on1`, the Potency [1] was “inactive” and the Potency [3] was inconclusive: 10.6 µM [falling, partial curve].

For `NC1CCN(c2nc3c(cc2F)c(=O)c(C(=O)O)cn3-c2ccc(F)cc2F)C1` (stereo not given), the Potency [1] was inconclusive: 18.8 µM [activator, partial curve] and the activation [4] was inconclusive: 13.5% [at 42.5 µM].

With `Cc1c(C)c([N+](=O)[O-])c(C(C)(C)C)c([N+](=O)[O-])c1C` the Potency [1] was inconclusive: 61.1 µM [inhibitor, partial curve] and the activation [4] was inconclusive: 13.4%.

For `CC1(C)O[C@@H]2[C@@H](CO[C@@]3(COS(N)(=O)=O)OC(C)(C)O[C@@H]23)O1`, the Potency [1] was “inactive” and the Potency [2] was “inactive”.

For `CC1(C)O[C@@H]2C[C@H]3[C@@H]4C[C@H](F)C5=CC(=O)C=C[C@]5(C)[C@H]4[C@@H](O)C[C@]3(C)[C@]2(C(=O)CO)O1`, the Potency [1] was “inactive”, the Potency [2] was “inactive” and the Potency [4] was active: 0.0119 µM.

In the case of `CC(C(=O)O)c1ccc2c(c1)Cc1cccnc1O2` (stereo not given), the Potency [1] is reported as “inactive” and the Potency [4] is reported as “inactive”.

For `CC(=O)SC[C@@H](Cc1ccccc1)C(=O)NCC(=O)OCc1ccccc1`, the Potency [1] was “inactive” and the Potency [3] was active: 23.7 µM.

For `CC(C)c1ccc2cc(C(C)C)ccc2c1`, the activity, negative = inhibition [1] was inconclusive: 22.6% and the Potency [4] was “inactive”.

For `Cc1ccc(C=O)cc1C`, the Potency [1] was “inactive” and the Potency [2] was “inactive”.

In the case of `Clc1nnc(Cl)c2ccccc12`, the Potency [5] is reported as active: 15.3 µM.

For `CCCCCC`, the Potency [5] was “inactive”.

For `COc1cc([C@H]2Oc3cc([C@H]4Oc5cc(O)cc(O)c5C(=O)[C@@H]4O)ccc3O[C@@H]2CO)ccc1O`, the Potency [5] was inconclusive: 54.3 µM [cytotoxic, partial curve, poor fit] and inactive.

With `O=C1C(c2[nH]c3ccc(S(=O)(=O)O)cc3c2O)=Nc2ccc(S(=O)(=O)O)cc21` the Potency [5] was inconclusive: 61.1 µM [cytotoxic, partial curve], the Potency [6] was “inactive” and the Potency [7] was inconclusive: 68.6 µM. For the same molecule, the Potency [3] was inconclusive: 30.6 µM [falling, partial curve] and the Potency [2] was inconclusive: 61.1 µM [cytotoxic, partial curve].

With `CCc1ccc2c(c1)C(=O)c1ccccc1C2=O` the Potency [5] was “inactive”.

For `O=c1[nH]c2ccccc2n1CCCN1CCN(C(c2ccccc2)c2ccccc2)CC1`, the Potency [5] was inconclusive: 29.8 µM [cytotoxic] and the Potency [8] was inconclusive: 29.8 µM [cytotoxic, partial curve].

For `COc1ccc(S(=O)(=O)N2C(=O)[C@@](c3ccccc3OC)(N3C[C@H](O)C[C@H]3C(=O)N(C)C)c3cc(Cl)ccc32)c(OC)c1`, the Potency [5] was active: 54.5 µM, the Potency [6] was inconclusive: 7.7 µM [cytotoxic, full curve] and the Potency [7] was “inactive”. The activation [4] was inconclusive: -3.78%.

In the case of `Cc1cc(O)ccc1N`, the Potency [5] is reported as inconclusive: 8.68 µM [cytotoxic, full curve], the Potency [8] is reported as inconclusive: 38.8 µM [cytotoxic, partial curve] and the Potency [3] is reported as inconclusive: 61.4 µM [falling, partial curve]. The Potency [2] was inconclusive: 54.8 µM [cytotoxic, partial curve].

In the case of `CC(=O)Oc1cc2c(s1)CCN(C(C(=O)C1CC1)c1ccccc1F)C2` (stereo not given), the Potency [5] is reported as “inactive”.

In the case of `CCCCc1ccc2cccc(S(=O)(=O)O)c2c1`, the Potency [5] is reported as “inactive” and the Potency [8] is reported as “inactive”.

With `O=C(c1ccc(O)cc1)c1ccc(Cl)cc1` the Potency [5] was inconclusive: 62.4 µM [cytotoxic, single point], the Potency [6] was “inactive” and the Potency [2] was inconclusive: 70.1 µM [cytotoxic, single point]. The Potency [4] was inconclusive: 70.1 µM [cytotoxic, partial curve, poor fit].

With `Nc1ccc2c3c(cccc13)-c1ccccc1-2` the Potency [5] was inconclusive: 30.9 µM [rising, partial curve], the Potency [8] was active: 49.1 µM and the Potency [9] was inconclusive: 17.4 µM [activator, partial curve, poor fit]. For the same molecule, the Potency [2] was inconclusive: 30.9 µM [rising, partial curve] and the Potency [4] was inconclusive: 8.72 µM [rising, full curve].

For `CCCc1ccc(OCC(=O)N2CCN(C(=O)COc3ccc(CCC)cc3OC)CC2)c(OC)c1`, the Potency [5] was inconclusive: 26.6 µM [cytotoxic, partial curve], the Potency [6] was inconclusive: 33.5 µM [cytotoxic, single point] and the Potency [3] was “inactive”.

In the case of `O=C(O)CNC(=O)c1ccc([N+](=O)[O-])cc1`, the Potency [5] is reported as “inactive”.

In the case of `N=C(N)c1ccc(OCCCCCOc2ccc(C(=N)N)cc2)cc1`, the Potency [5] is reported as inconclusive: 76.6 µM [cytotoxic, single point], the Potency [6] is reported as inconclusive: 34.2 µM [cytotoxic, partial curve] and inconclusive: 29.3 µM [cytotoxic, partial curve] and inactive and the Potency [8] is reported as inconclusive: 27.2 µM [cytotoxic, partial curve]. The Potency [2] was inconclusive: 54.2 µM [cytotoxic, partial curve] and inconclusive: 32.8 µM [cytotoxic, partial curve, poor fit].
